# Results reported in the RNAGym collection of RNA variant scans (doi:10.1093/nar/gkz1192).
# The source gives no read counts; variants with many changes may rest on few reads.
# B1: CPEB3 Ribozyme (parent)
# chain: UAACAGGGGGCCACAGCAGAAGCGUUCACGUCGCAGCCCCUGUCAGAUUCUGGUGAAUCUGCGAAUUCUGCUGUAUAUCUC
# Variants of: B1
# Test: self-cleavage, relative activity (ratio to wild type); higher = more cleavage; in vitro, sequencing
# In short: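 After error-prone PCR and barcoding, CPEB3 ribozyme mutant libraries were transcribed with T7 RNA polymerase at 37°C for 5 hours, then given 15 min with DNase I before an EDTA stop, and they cleaved during both steps. Reverse transcription with template switching preceded Illumina sequencing. Relative activity divides a variant's cleaved/total read fraction by the unmutated ribozyme's. At least 5 reads were required per variant, and three batches were averaged.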
row,Variant,self-cleavage
1,UAACAGGGGGCCACAGCAGAAGCGCUCACGUCGCAGCCCCUGCCAGAUUCUGGUGAAUCUGCGAAUUGUGCUGUAUAUCUC [U25C U43C C68G],0.5
2,UAACAGGGGGCCACAGCAGAAGCGCUCACGUCGCAGCCCCUGCCAGACUAUGGUGAAUCUGCGAAUUCUGCUGUAUAUCUC [U25C U43C U48C C50A],0.37
3,UAACAGGGGGCCACAGCAGAAGCGCUCACGUCGCAGCCCCUGCCAGACUCUGGUGAAUCUGCGAAUUCUGCUGUAUAUCCC [U25C U43C U48C U80C],0.18
4,UAACAGGGGGCCACAGCAGAAGCGCUCACGUCGCAGCCCCUGCCAGAUCCUGGUGUAUCUGCGAAUUCUGCUGUAUAUCUC [U25C U43C U49C A56U],0.34
5,UAACAGGGGGCCACAGCAGAAGCGCUCACGUCGCAGCCCCUGCCAGAUCCUGGUGAAUCUGCGAAUUCCGCUGUAUAUCUC [U25C U43C U49C U69C],0.21
6,UAACAGGGGGCCACAGCAGAAGCGCUCACGUCGCAGCCCCUGCCAGAUCCUGGUGAAUCUGCGAAUUCUGCUGAAUAUCUC [U25C U43C U49C U74A],0.23
7,UAACAGGGGGCCACAGCAGAAGCGCUCACGUCGCAGCCCCUGCCAGAUUCCGGUGAAUCUGCGAACUCUGCUGUAUAUCCC [U25C U43C U51C U66C U80C],0.32
8,UAACAGGGGGCCACAGCAGAAGCGCUCACGUCGCAGCCCCUGCCAGAUUCUGGAGAAUCUGCGAAUUCCGCUGUAUAUCUC [U25C U43C U54A U69C],0.2
9,UAACAGGGGGCCACAGCAGAAGCGCUCACGUCGCAGCCCCUGCCAGAUUCUGGUGAAUCCGCGUAUUCUGCUGUAUAUCUC [U25C U43C U60C A64U],0.14
10,UAACAGGGGGCCACAGCAGAAGCGCUCACGUCGCAGCCCCUGCCAGAUUCUGGUGAAUCCGCGAAUUCUGCAGUAUAUCUC [U25C U43C U60C U72A],0.19
11,UAACAGGGGGCCACAGCAGAAGCGCUCACGUCGCAGCCCCUGCCAGAUUCUGGUGAAUCCGCGAAUUCUGCUGUAUAACUC [U25C U43C U60C U78A],0.15
12,UAACAGGGGGCCACAGCAGAAGCGCUCACGUCGCAGCCCCUGCCAGAUUCUGGUGAAUCUGCGAAUACUGCUGUGUAUCUC [U25C U43C U67A A75G],0.05
13,UAACAGGGGGCCACAGCAGAAGCGCUCACGUCGCAGCCCCUGCCAGAUUCUGGUGAAUCUGCGAAUCCUGCUGUACAUCUC [U25C U43C U67C U76C],0.09
14,UAACAGGGGGCCACAGCAGAAGCGCUCACGUCGCAGCCCCUGCCAGAUUCUGGUGAAUCUGCGAAUUCUGCAGUAUAUCUC [U25C U43C U72A],0.19
15,UAACAGGGGGCCACAGCAGAAGCGCUCACGUCGCAGCCCCUGGCAGAUUCUGGUGAAUCAGCGAAUUCUGCGGUAUACCUC [U25C U43G U60A U72G U78C],0.07
16,UAACAGGGGGCCACAGCAGAAGCGCUCACGUCGCAGCCCCUGGCAGAUUCUGGUGAAUCUGCGAAUUCUGCUGUAUAUCAC [U25C U43G U80A],0.15
17,UAACAGGGGGCCACAGCAGAAGCGCUCACGUCGCAGCCCCUGUCAGAACCUGGUGAAUCUGCGUAUUCUGCUGUAUAUCUC [U25C U48A U49C A64U],0.12

row,Variant,self-cleavage
1,UAACAGGGGGCCACAGCAGAAGCGCUCACGUCGCAGCCCCUGUCAGAAUCAGGUGAAUCUGCGAAUUCUGCUGUAUAUCUC [U25C U48A U51A],0.39
2,UAACAGGGGGCCACAGCAGAAGCGCUCACGUCGCAGCCCCUGUCAGAAUCCGGUGAAUCUGCGAAUUCUCCUGUAUAUCUC [U25C U48A U51C G70C],0.12
3,UAACAGGGGGCCACAGCAGAAGCGCUCACGUCGCAGCCCCUGUCAGACUCUGGUGUAUCUGCGAAUUCUGCUGUAUAUCUC [U25C U48C A56U],0.07
4,UAACAGGGGGCCACAGCAGAAGCGCUCACGUCGCAGCCCCUGUCAGACUCUGGUGAGUCUGCGAAUUCUGCCGUAUAUCUC [U25C U48C A57G U72C],0.07
5,UAACAGGGGGCCACAGCAGAAGCGCUCACGUCGCAGCCCCUGUCAGACUCUGGUGAGUCUGCGAAUUCUGCUGUACAUCUC [U25C U48C A57G U76C],0.43
6,UAACAGGGGGCCACAGCAGAAGCGCUCACGUCGCAGCCCCUGUCAGACUCUGGUGAAUCUGCGUAUUCUGCUGUAUAUCUC [U25C U48C A64U],0.19
7,UAACAGGGGGCCACAGCAGAAGCGCUCACGUCGCAGCCCCUGUCAGACUCUGGUGAAUCUGCGAAUUCUGCUGUAUGUCUC [U25C U48C A77G],0.22
8,UAACAGGGGGCCACAGCAGAAGCGCUCACGUCGCAGCCCCUGUCAGACUCUGGUGAAUCUGCGAAUUCUGAUGUAUAUCUC [U25C U48C C71A],0.08
9,UAACAGGGGGCCACAGCAGAAGCGCUCACGUCGCAGCCCCUGUCAGACUCAGGUGAAUCUGCGAAUUCUGCUGUAUAUCUC [U25C U48C U51A],0.34
10,UAACAGGGGGCCACAGCAGAAGCGCUCACGUCGCAGCCCCUGUCAGACUCCGGUGAAUCUGCGCAUUCUGCUGUAUAUCAC [U25C U48C U51C A64C U80A],0.15
11,UAACAGGGGGCCACAGCAGAAGCGCUCACGUCGCAGCCCCUGUCAGACUCCGGUGAAUCUGCGAUUUCUGCUGAAUAUCUC [U25C U48C U51C A65U U74A],0.15
12,UAACAGGGGGCCACAGCAGAAGCGCUCACGUCGCAGCCCCUGUCAGACUCCGGUGAAUCUGCGAAUUCUGCUGUAUAUCCU [U25C U48C U51C U80C C81U],0.3
13,UAACAGGGGGCCACAGCAGAAGCGCUCACGUCGCAGCCCCUGUCAGACUCUGGCGAGUCUGCGAAUUCUGCUGUAUAUCUC [U25C U48C U54C A57G],0.43
14,UAACAGGGGGCCACAGCAGAAGCGCUCACGUCGCAGCCCCUGUCAGACUCUGGUGAAUCAGCGAAUUCUGCUGUAUAUCUC [U25C U48C U60A],0.13
15,UAACAGGGGGCCACAGCAGAAGCGCUCACGUCGCAGCCCCUGUCAGACUCUGGUGAAUCUGCGAACUCUGCUGUAUAUCUC [U25C U48C U66C],0.37
16,UAACAGGGGGCCACAGCAGAAGCGCUCACGUCGCAGCCCCUGUCAGACUCUGGUGAAUCUGCGAAUUCCGCUGUAUAUCUC [U25C U48C U69C],0.1
17,UAACAGGGGGCCACAGCAGAAGCGCUCACGUCGCAGCCCCUGUCAGACUCUGGUGAAUCUGCGAAUUCCGCCGUAUACCUC [U25C U48C U69C U72C U78C],0.08
